# Data taken from the supplement of paper PMC4604168 (melanoma cell lines).
# The other results are listed elsewhere or left out. Many values rest on one well or one pass, so single values are uncertain.
# Experiments:
# Assay in all cases: cell count relative to DMSO control; melanoma cells; higher = more viable cells
# Conditions in all cases: library dose: standard library concentration; 72 h
# [1] = test system: G361
# [2] = test system: IPC-298
# [3] = test system: IST-MEL1
# [4] = test system: LB2518-MEL
# [5] = test system: LOXIMVI
# [6] = test system: MEL-HO
# [7] = test system: MZ2-MEL
# [8] = test system: MeWo
# [9] = test system: RPMI7951
# [10] = test system: RVH-421
# [11] = test system: SkMel28
# [12] = test system: SkMel2
# [13] = test system: SkMel30
# [14] = test system: SkMel5
# [15] = test system: UACC257
# [16] = test system: UACC62
# [17] = test system: WM115
# [18] = test system: WM1716
# [19] = test system: WM1745
# [20] = test system: WM3526
# 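Note: cells treated in 1,536-well plates, then fixed and DAPI-stained, with nuclei counted from automated high-throughput microscope images.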
Structure (SMILES),cell count [1] [%],cell count [2] [%],cell count [3] [%],cell count [4] [%],cell count [5] [%],cell count [6] [%],cell count [7] [%],cell count [8] [%],cell count [9] [%],cell count [10] [%],cell count [11] [%],cell count [12] [%],cell count [13] [%],cell count [14] [%],cell count [15] [%],cell count [16] [%],cell count [17] [%],cell count [18] [%],cell count [19] [%],cell count [20] [%]
"COc1cc([C@@H]2c3cc4c(cc3[C@@H](O[C@@H]3O[C@@H]5CO[C@@H](C)O[C@H]5[C@H](O)[C@H]3O)[C@H]3COC(=O)[C@H]23)OCO4)cc(OC)c1O [etoposide] + Nc1nc(F)nc2c1ncn2[C@@H]1O[C@H](CO)[C@@H](O)[C@@H]1O [fludarabine] (first compound 0.1 µM, partner dose 1 µM)",89.9,74.9,72.1,83.5,111,81,81,88.4,79.6,85.8,3.76,1.03,14.5,22.4,29,65.3,77.3,64.8,75.5,19.9
"COc1cc([C@@H]2c3cc4c(cc3[C@@H](O[C@@H]3O[C@@H]5CO[C@@H](C)O[C@H]5[C@H](O)[C@H]3O)[C@H]3COC(=O)[C@H]23)OCO4)cc(OC)c1O [etoposide] + NC1(c2ccc(-c3nc4ccn5c(=O)[nH]nc5c4cc3-c3ccccc3)cc2)CCC1 [MK2206] (first compound 0.1 µM, partner dose 2 µM)",79.2,50.1,80.8,61,32.2,75,68.6,62.5,80.4,84.1,42.6,49.5,77.2,55,77.2,114,55.1,60.2,73.2,51.4
"Cn1cnc2c(F)c(Nc3ccc(Br)cc3Cl)c(C(=O)NOCCO)cc21 [selumetinib] + Cn1nnc2c(C(N)=O)ncn2c1=O [temozolomide] (first compound 0.075 µM, partner dose 10 µM)",69.8,50.2,89.1,42.2,93.8,95.4,62.7,75.2,116,74.9,33.5,41,51,82.4,105,43.1,80.5,55.8,97.3,50.2
"C[C@]1(O)C[C@@H](c2nc(-c3ccc4ccc(-c5ccccc5)nc4c3)c3c(N)nccn32)C1 + Cn1c(=O)n(-c2ccc(C(C)(C)C#N)cc2)c2c3cc(-c4cnc5ccccc5c4)ccc3ncc21 [NVP-BEZ235] (first compound 2 µM, partner dose 0.02 µM)",42.1,66,74.8,64.7,48.1,66.7,61.3,50.3,45.9,74.4,35.4,37.9,46.8,42.6,78.5,52.4,68.6,60.3,55,43.3
"C[C@]1(O)C[C@@H](c2nc(-c3ccc4ccc(-c5ccccc5)nc4c3)c3c(N)nccn32)C1 + CCN(CC)CCNC(=O)c1c(C)[nH]c(/C=C2\C(=O)Nc3ccc(F)cc32)c1C [sunitinib] (first compound 2 µM, partner dose 2 µM)",65,74.5,86,68.2,95.9,78.7,119,69,65.4,87.4,43.6,56.2,47.2,52.5,83.9,51.5,57.7,91.2,37.8,55.1
"C[C@]1(O)C[C@@H](c2nc(-c3ccc4ccc(-c5ccccc5)nc4c3)c3c(N)nccn32)C1 + CS(=O)(=O)c1ccc(C(=O)Nc2ccc(Cl)c(-c3ccccn3)c2)c(Cl)c1 [vismodegib] (first compound 2 µM, partner dose 5 µM)",80.8,90.3,115,93.9,120,101,105,79.4,56.7,148,89.3,98.4,110,81.8,113,66.9,127,131,69.4,85.2
"CCN(CC)CCNC(=O)c1c(C)[nH]c(/C=C2\C(=O)Nc3ccc(F)cc32)c1C [sunitinib] + COc1cc2c(Oc3ccc4[nH]c(C)cc4c3F)ncnc2cc1OCCCN1CCCC1 [cediranib] (first compound 2 µM, partner dose 2 µM)",66.9,75,89.5,48,44.2,84.1,93.5,45.4,13.7,82.2,35,47.8,45.4,37.2,88.5,42,53.8,77.5,42.6,46.9
"Cn1cnc2c(F)c(Nc3ccc(Br)cc3Cl)c(C(=O)NOCCO)cc21 [selumetinib] + C=CCn1c(=O)c2cnc(Nc3ccc(N4CCN(C)CC4)cc3)nc2n1-c1cccc(C(C)(C)O)n1 [MK1775] (first compound 0.075 µM, partner dose 0.1 µM)",53.5,49,73.4,38.2,75,83,55.5,60.6,42.3,73.9,28.6,32.1,52.6,38.3,79.5,50.6,60,75.1,66.2,44.6
"COc1cc([C@@H]2c3cc4c(cc3[C@@H](O[C@@H]3O[C@@H]5CO[C@@H](C)O[C@H]5[C@H](O)[C@H]3O)[C@H]3COC(=O)[C@H]23)OCO4)cc(OC)c1O [etoposide] + Cc1nc(Nc2ncc(C(=O)Nc3c(C)cccc3Cl)s2)cc(N2CCN(CCO)CC2)n1 [dasatanib] (first compound 0.1 µM, partner dose 0.02 µM)",76.7,54.4,70.1,67,13.3,72.3,34.2,62.8,30.6,70.1,34.9,66,89.5,47,77.4,58.9,48,47.3,36.9,71.7
"Cn1cnc2c(F)c(Nc3ccc(Br)cc3Cl)c(C(=O)NOCCO)cc21 [selumetinib] + CCN(CC)CCNC(=O)c1c(C)[nH]c(/C=C2\C(=O)Nc3ccc(F)cc32)c1C [sunitinib] (first compound 0.075 µM, partner dose 2 µM)",56.8,49,87.7,31.7,128,73.8,39.8,41.2,70.7,71.3,29.1,15.9,33.1,56.9,94.2,35.4,62.8,67.5,39,43.2
"C[C@]1(O)C[C@@H](c2nc(-c3ccc4ccc(-c5ccccc5)nc4c3)c3c(N)nccn32)C1 + C=CCn1c(=O)c2cnc(Nc3ccc(N4CCN(C)CC4)cc3)nc2n1-c1cccc(C(C)(C)O)n1 [MK1775] (first compound 2 µM, partner dose 0.1 µM)",67.9,71.6,81.8,55,76.6,92.9,103,60.6,82.4,94.8,38.5,56.4,73.4,52,76.6,49.8,55,84.6,31.2,59.2
"C[C@]1(O)C[C@@H](c2nc(-c3ccc4ccc(-c5ccccc5)nc4c3)c3c(N)nccn32)C1 + Cc1nc(Nc2ncc(C(=O)Nc3c(C)cccc3Cl)s2)cc(N2CCN(CCO)CC2)n1 [dasatanib] (first compound 2 µM, partner dose 0.02 µM)",65.9,75.7,67.2,71.5,37.9,74.9,49.7,60.3,49.2,66.4,45,71.8,78.9,48.6,90.6,55.9,66.1,57,23,86.3
"CCN(CC)CCNC(=O)c1c(C)[nH]c(/C=C2\C(=O)Nc3ccc(F)cc32)c1C [sunitinib] + OCc1c[nH]c2ccccc12 [Indole-3-carbinol] (first compound 2 µM, partner dose 4 µM)",64.7,61.4,89.7,58.1,117,74.7,78.3,55.3,59.2,54.4,71.9,65.1,43.7,48.5,81.6,49.7,57.7,91.8,34.3,47.3
"Cn1cnc2c(F)c(Nc3ccc(Br)cc3Cl)c(C(=O)NOCCO)cc21 [selumetinib] + CCCCCCCCc1ccc(CCC(N)(CO)CO)cc1 [fingolimod] (first compound 0.075 µM, partner dose 10 µM)",14,26.7,3.89,0.21,25.8,26.8,5.37,33.1,1.03,4.08,1.3,0.324,10.9,37.6,85.8,21.7,12.2,48.2,7.99,16.9
"Cn1cnc2c(F)c(Nc3ccc(Br)cc3Cl)c(C(=O)NOCCO)cc21 [selumetinib] + Nc1ncn([C@H]2C[C@H](O)[C@@H](CO)O2)c(=O)n1 [decitabine] (first compound 0.075 µM, partner dose 0.5 µM)",53.6,43.5,74.3,46.1,121,65,60.9,68.9,82.7,73.2,60.6,42.8,65.5,63.8,109,66.1,70.4,76.8,74.8,60.7
